The values below come from publication PMC6919601, “Identification of Plasmodium dipeptidyl aminopeptidase allosteric inhibitors by high throughput screening” (PLoS ONE, 2019).

SMILES strings stand for the structures. Among all 110,000 compounds or so, about 230 (0.21%) showed an effect of 50% or more. This is one part of the list.
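Note: 30 min substrate incubation versus DMSO and 10 µM JCP410 controls.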

The target of this assay is DPAP1 (Plasmodium falciparum, UniProt Q8IIJ9). In words: primary screen, percent inhibition; read by cleavage of a fluorogenic dipeptide substrate; higher = more effect of the substance. The arrangement: species or system P. falciparum D10 trophozoite lysates; single well.
DPAP1, sequence (Q8IIJ9 whole entry, looked up): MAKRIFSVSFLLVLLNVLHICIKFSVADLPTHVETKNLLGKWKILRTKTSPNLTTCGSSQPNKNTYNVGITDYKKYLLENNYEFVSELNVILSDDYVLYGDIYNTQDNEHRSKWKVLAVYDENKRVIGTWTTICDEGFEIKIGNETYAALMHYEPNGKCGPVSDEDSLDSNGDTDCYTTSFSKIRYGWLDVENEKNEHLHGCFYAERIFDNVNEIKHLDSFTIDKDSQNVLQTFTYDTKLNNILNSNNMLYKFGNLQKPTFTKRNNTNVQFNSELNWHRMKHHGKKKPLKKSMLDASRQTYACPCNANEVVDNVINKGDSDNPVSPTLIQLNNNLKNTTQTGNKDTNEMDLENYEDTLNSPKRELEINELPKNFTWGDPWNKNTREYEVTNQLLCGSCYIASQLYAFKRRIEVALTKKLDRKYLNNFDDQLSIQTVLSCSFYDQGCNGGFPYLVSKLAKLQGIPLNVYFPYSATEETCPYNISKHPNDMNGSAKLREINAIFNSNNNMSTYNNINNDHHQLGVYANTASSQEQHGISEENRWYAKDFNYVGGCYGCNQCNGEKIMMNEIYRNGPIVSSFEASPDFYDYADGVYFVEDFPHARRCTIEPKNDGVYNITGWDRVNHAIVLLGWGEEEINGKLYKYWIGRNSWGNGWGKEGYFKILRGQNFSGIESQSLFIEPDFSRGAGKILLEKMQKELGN
As to `COc1ccc(-c2nc(SCC(=O)Nc3cccc(F)c3)nc(O)c2C#N)cc1`, the “% Inhibition @ 10 uM” value worked out at 3.19%.
Under `CC1(C)CC(=O)C2=C(C1)OC1=C(C(=O)CC(C)(C)C1)C2c1cccc(OCC(=O)Nc2ccccc2)c1` stands -4.97%; under `O=C(Nc1ccc2c(c1)CCC2)c1cccc(OC(F)F)c1`, -1.61%.
Under `CCCN1CC=C2C(C#N)=C(N)C(C#N)(C#N)C(c3ccccc3Cl)C2C1` (stereo not shown) stands 4.95%; under `CCN(Cc1ccccc1)Cc1ccc(-c2ccc(Cl)cc2)o1`, -7.18%.
With `CCNC(=O)c1cc(-c2ccc(Cl)cc2)nc2ccccc12`, the “% Inhibition @ 10 uM” value was -8.64%.
Under `OCCN1CCN(CCCc2c3c(cc4c2CCC4)CCC3)CC1` stands 1.19%.
Under `O=C(Nc1nc(-c2ccc(F)cc2)cs1)C1CCCO1` (stereo not shown) stands -8.49%.
As for `Cn1ncc2c(NCc3ccncc3)ncnc21`, the “% Inhibition @ 10 uM” value is 0.0904%.
Consider `CN(C)c1ccc(CN2CCCC(O)C2)cc1` (stereo not shown), for which the “% Inhibition @ 10 uM” value is on record as -5.57%.
As to `COc1ccc(C2N=C(c3cccc(OC)c3)Nc3ccc4ccccc4c32)cc1` (stereo not shown), the “% Inhibition @ 10 uM” value is 8.53%.
As to `COc1cccc(C2CC3=Nc4ccccc4NC(c4ccc5c(c4)OCO5)C3=C(O)C2)c1` (stereo not shown), the “% Inhibition @ 10 uM” value was 1.35%.
As to `C(#Cc1ccccc1)/C=N/n1cnnc1`, the “% Inhibition @ 10 uM” value is -1.52%.
As for `CCn1c2ccccc2c2nnc(SCC(=O)Nc3cc(C)on3)nc21`, the “% Inhibition @ 10 uM” value stood at 5.55%.
Consider `C#CCOc1ccc(C2C(C#N)=C(N)Oc3cc4c(cc32)OCO4)cc1OC` (stereo not shown), for which the “% Inhibition @ 10 uM” value is recorded as 0.851%.
As for `CN(C)CCNC(=O)c1ccc(Cn2c(SCc3ccccc3F)nc3cccnc32)cc1`, the figure is -0.0871%.
With `Oc1cc(Nc2ccccc2Cl)nc(O)n1`, the “% Inhibition @ 10 uM” value was -0.711%.
For `NS(=O)(=O)c1ccc(NC2=NC(=O)C(CC(=O)Nc3ccccc3)S2)cc1` (stereo not shown), the “% Inhibition @ 10 uM” value is given as 0.528%.
In the case of `CC(C)N(Cc1ccccc1)C(=O)C1CCN(C(=O)c2cnn(-c3ccccc3)c2-n2cccc2)CC1`, the “% Inhibition @ 10 uM” value amounted to 0.137%.
For `Oc1nc2ccc(C34CC5CC(CC(C5)C3)C4)cc2nc1O`, the “% Inhibition @ 10 uM” value is listed as -2.99%.
For `COCCNC(=O)/C(C#N)=C/c1c(Oc2ccc(OC)cc2)nc2ccccn2c1=O`, the “% Inhibition @ 10 uM” value stood at 1.19%.
For the compound `COc1cccc(C(=O)Nc2ccc3c(c2)Cc2ccccc2-3)c1OC`, the “% Inhibition @ 10 uM” value worked out at 2.27%.
Under `COc1cc(C2C3=C(O)CC(C)(C)CC3=NC(C)=C2C(=O)Nc2ccccc2C)ccc1O` (stereo not shown) stands 3.96%; under `CC(=O)NC1=NN(C(C)=O)C(C)(CS(=O)(=O)c2ccc3ccccc3c2)S1` (stereo not shown), -4.75%; under `Cn1c2ccccc2c2c(C(=O)N3CCN(C(=O)c4ccco4)CC3)cn(C3CCCCC3)c(=O)c21`, 0.163%.
With `COc1ccc2[nH]c3c(=O)n(CCCCC(=O)N4CC(C)CC(C)C4)c(=S)[nH]c3c2c1` (stereo not shown), the “% Inhibition @ 10 uM” value is -2.19%.
Take `CC(C)(C)n1nc2c(c1NC(=O)c1cccc(Br)c1)CS(=O)(=O)C2`: the “% Inhibition @ 10 uM” value is -1.61%.
As for `COc1cccc(C2CC(=O)N=C(NC(=O)c3ccc(OC(F)F)cc3)N2)c1OC` (stereo not shown), the “% Inhibition @ 10 uM” value is given as -4.46%.
As for `COc1ccc(C)cc1NCc1cccc2ccccc12`, the figure is 7.24%; as for `O=C1c2ccccc2C(=O)c2c1cccc2S(=O)(=O)N1CCOCC1`, 3.04%; as for `O=C(O)COc1ccc(C2C3CC4CC(C3)CC2C4)cc1` (stereo not shown), 0.00784%.
`COc1ccc(-n2nc3c(c2NC(=O)c2ccccc2C(F)(F)F)CS(=O)C3)cc1` (stereo not shown): the “% Inhibition @ 10 uM” value is 2.84%.
As to `Cc1ccc(-c2cc3c4c(C)n(C)c(C)c4c(C)nn3c2)o1`, the “% Inhibition @ 10 uM” value was 2.21%.
On to `COCCNC(=O)c1cc2c(O)nc3ccc(C)cc3c2s1`, for which the “% Inhibition @ 10 uM” value is reported as -5.17%.
Consider `CCOc1ccc(NCC(=O)Nc2ccc(C)cc2C)cc1`, for which the “% Inhibition @ 10 uM” value is recorded as -7.83%.
In the case of `COc1cc(OC)c(C2CC(=O)Oc3c2c(O)nc2ccccc32)cc1OC` (stereo not shown), the “% Inhibition @ 10 uM” value is listed as -1.05%.
On to `N#Cc1c(-c2ccc([N+](=O)[O-])cc2)cc(-c2ccccc2)nc1N`, for which the “% Inhibition @ 10 uM” value is given as -2.21%.
As to `CC(C)c1nnc(NC(=O)CCCOc2ccc(Cl)cc2)s1`, the “% Inhibition @ 10 uM” value is given as -4.93%.
With `CCOC(=O)C1=CN(C(C)C)C=C(C(=O)OCC)C1c1ccc(OC)c(O)c1`, the “% Inhibition @ 10 uM” value came out at 0.219%.
As to `CC12CCC(=O)C=C1CCC1C2CCC2(C)C(C(=O)O)CCC12` (stereo not shown), the “% Inhibition @ 10 uM” value is given as -1.5%.
For `Cc1ccc(Cn2c(C)nc3ccccc32)cc1`, the “% Inhibition @ 10 uM” value was -2.2%.
As to `C#CC(C)(C)N1CC(C)C(O)(c2ccccc2)CC1C` (stereo not shown), the “% Inhibition @ 10 uM” value is on record as -0.127%.
`O=C(O)C1CCN(Cc2cnn(-c3ccccc3)c2-n2cccc2)CC1`: the “% Inhibition @ 10 uM” value is reported as -3.78%.
For the compound `CCC1=C(C#N)C(c2cccnc2)C(C(=O)OC)=C(N)O1` (stereo not shown), the “% Inhibition @ 10 uM” value is given as 1.76%.
Turning to `CC(=O)OC1CC2CCC(C1)N2C(=O)N1c2ccccc2C=Cc2ccccc21` (stereo not shown), the “% Inhibition @ 10 uM” value was 3.32%.
As to `Nc1c(C(=O)c2ccc(Br)cc2)sc2nc(-c3cccs3)cc(C(F)(F)F)c12`, the “% Inhibition @ 10 uM” value is reported as -3.72%.
As for `CCC1CCCCN1CCCNC(=O)Cn1ncc2c3ccccc3n(C)c2c1=O` (stereo not shown), the “% Inhibition @ 10 uM” value was -0.23%.
On to `Cc1oc2ncnc(N3CCC(C(N)=O)CC3)c2c1C(=O)O`, for which the “% Inhibition @ 10 uM” value is listed as -0.495%.
Regarding `COc1ccc(CN2CCC(N3CCCCC3)CC2)c(OC)c1`, the “% Inhibition @ 10 uM” value is on record as -1.78%.
